The campaign covered roughly 110,000 compounds. About 230 (0.21%) showed an effect of 50% or more. This is one part of the list.
molecular target: DPAP1 (Plasmodium falciparum, UniProt Q8IIJ9); test: primary screen, percent inhibition; read by cleavage of a fluorogenic dipeptide substrate; higher = more effect of the substance; set-up: species or system P. falciparum D10 trophozoite lysates; single well
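Also: 30 min substrate incubation versus DMSO and 10 µM JCP410 controls.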

DPAP1, sequence (Q8IIJ9 whole entry, looked up): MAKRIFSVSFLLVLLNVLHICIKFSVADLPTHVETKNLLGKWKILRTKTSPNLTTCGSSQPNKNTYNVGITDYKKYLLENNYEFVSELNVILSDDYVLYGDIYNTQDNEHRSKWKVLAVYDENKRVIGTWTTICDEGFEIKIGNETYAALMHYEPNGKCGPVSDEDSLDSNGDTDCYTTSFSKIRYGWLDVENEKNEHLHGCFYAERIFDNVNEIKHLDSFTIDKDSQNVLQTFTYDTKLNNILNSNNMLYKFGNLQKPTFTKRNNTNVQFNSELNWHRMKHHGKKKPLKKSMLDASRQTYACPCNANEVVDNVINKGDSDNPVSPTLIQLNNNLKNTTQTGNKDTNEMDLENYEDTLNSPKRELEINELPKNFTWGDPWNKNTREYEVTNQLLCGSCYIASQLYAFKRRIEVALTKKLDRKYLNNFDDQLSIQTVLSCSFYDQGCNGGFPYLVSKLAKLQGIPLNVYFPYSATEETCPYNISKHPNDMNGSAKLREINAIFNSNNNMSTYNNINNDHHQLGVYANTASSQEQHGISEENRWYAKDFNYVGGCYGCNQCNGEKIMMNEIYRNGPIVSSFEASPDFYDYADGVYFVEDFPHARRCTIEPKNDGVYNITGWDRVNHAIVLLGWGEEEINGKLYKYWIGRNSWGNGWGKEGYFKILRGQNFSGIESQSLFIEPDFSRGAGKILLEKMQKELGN

SMILES | % Inhibition @ 10 uM [%]
CCCCSC1=C(C#N)C(c2ccc(O)c(OC)c2)C2=C(O)CCCC2=N1 (centres unmarked) | -7.02
CCOc1ccc(C2CC(=O)N=C(NC(=O)c3cccnc3)N2)cc1 (centres unmarked) | 0.6
COC(C)(C)CCC[C@@H](C)C(=O)OC(C)C | -3.58
COc1ccc(C2C(C(=O)NCC3CCCO3)c3cc(OC)c(OC)cc3C(=O)N2C)cc1OC (centres unmarked) | -2.9
C=CCOc1ccc(/C=C2\Oc3ccc(C(=O)OC)cc3C2=O)cc1 | -1.37
O=C(NCc1ccc(F)cc1)c1ccc2c(O)c(S(=O)(=O)c3ccc(Cl)cc3)c(O)nc2c1 | 2.73
CCN1CCN(CCCNC(=O)c2cc3c(s2)-c2ccccc2S(=O)(=O)C3)CC1 | -3.96
Cc1ccc(NC(=O)CCN2C(=O)CSC2=O)cc1 | -3.25
Cn1c(=O)c2c(nc(Cl)n2CC(O)CO)n(C)c1=O (centres unmarked) | 3.47
CCCN(Cc1cc([N+](=O)[O-])ccc1Cl)CC1CC1 | -0.0494
COc1ccc(-c2nc(CSCC(=O)NC(C)c3ccccc3)c(C)o2)cc1OC (centres unmarked) | -1.05
Cc1ccc(C(=O)Nc2ccc3nc(SCC(=O)N4CCOCC4)sc3c2)cc1 | 4
O=C(N/C(=C\c1cccs1)C(=O)N1CCN(Cc2ccccc2)CC1)c1ccccc1 | -1.08
Brc1ccc(C2Oc3ccccc3C3CC(c4cccs4)=NN32)o1 (centres unmarked) | 40.7
COCCCNC(=O)c1cc2c(s1)CS(=O)(=O)C2 | -3.84
CCN(CC)C(=O)C1CCCN(C2Cc3ccccc3C2)C1 (centres unmarked) | 4.65
CN1CCN(C(=O)c2ccc(CS(=O)c3ccc(Cl)cc3)o2)CC1 (centres unmarked) | -3.09
CC1=CC2(CCC(C)CC2C(=O)NCc2ccc(Cl)cc2)OC1=O (centres unmarked) | -0.406
N=C1/C(=C\c2ccco2)C(=O)N=C2SC(N3CCCC3)=NN12 | -5.27
O=C(ON1C(=O)c2cccc3cccc(c23)C1=O)c1ccco1 | -0.958
CCOc1cccc(C(=O)Nc2ccccc2F)c1 | 6.15
COc1cccc2c1cc1c(=O)n(CC(=O)NCCCOC(C)C)nc(C)n12 | 4.84
CS(=O)(=O)CC[C@@H](C(=O)NC1CCCCCC1)N1Cc2ccccc2C1=O | 4.54
CCOC(=O)c1c(NC(C)=O)sc2c(O)c(CN3CCN(CC)CC3)ccc12 | 4.66
Cc1cc(C)n(Cc2ccccc2F)c(=O)c1C#N | -5.8

SMILES | % Inhibition @ 10 uM [%]
CC1C/C(=C/c2ccncc2)C(=O)/C(=C/c2ccncc2)C1 (centres unmarked) | 2.59
COc1ccc(CNC(=O)CS(=O)(=O)Cc2nc(-c3ccc(C)cc3)oc2C)cc1 | -5.58
Cc1ccc(-c2cc(C(F)(F)F)n3nc(C(=O)NCCCN4CCOCC4)cc3n2)cc1 | -4.59
Cc1cccn2c(=O)c3cc(C#N)c(=N)n(CCOCCO)c3nc12 | -1.47
COc1ccc(CN(C(=O)c2cccc(F)c2)C2CC(=O)N(c3ccccc3)C2=O)cc1 (centres unmarked) | 3.05
COCCNCc1c(C(=O)O)n(Cc2ccccc2)c2ccccc12 | 1.93
Cn1nc(C(=O)NCCOC23CC4CC(CC(C4)C2)C3)c2c1-c1ccccc1SC2 | 10.7
OC(c1ccccc1)c1nc2ccccc2s1 (centres unmarked) | 7.49
O=C(Cn1cnc2c(nnn2Cc2ccccc2F)c1=O)NC1CCCCC1 | 2.85
COc1ccc(Cn2cc[nH]c(=O)c2=O)cc1 | 1.02
O=C(NCC1CCCO1)C1CCN(C(=O)c2cc3sccc3n2Cc2ccc(Cl)cc2)CC1 (centres unmarked) | 0.137
O=C(COCc1cc(-c2ccco2)on1)NCc1cccs1 | -1.58
CN(C)c1ccc(CN2CCN(CCO)CC2)cc1 | 5.56
Cc1ccc(CNC(=O)c2cc3c(=O)n(Cc4ccccc4)ccc3nc2C)o1 | 0.411
CCCCNC(=O)CN1C(=O)c2cccc3cccc1c23 | -6.02
COc1ccc(CNC(=O)c2oc3ccc4c(c3c2C)C(=O)CC(C)(C)O4)cc1 | -8.96
COc1ccc(Cl)cc1C(=O)N1C(C)CCCC1C (centres unmarked) | 5.24
Cc1ccc(C)c(NCc2ccccc2CO)c1 | -7.96
CCN(CC)CCNC(=O)Cn1nc(C)n2c(cc3sccc32)c1=O | -0.0745
CCN(C(C)=O)c1nc(-c2ccc(C3CCCCC3)cc2)cs1 | 0.913
Cc1ccc(CNC(=O)CS(=O)Cc2nc(-c3ccccc3Cl)oc2C)cc1 (centres unmarked) | -1.05
O=C(c1nc(-c2ccc(Cl)cc2)n2c1CCCCC2)N1CCN(c2ccccn2)CC1 | 4.61
Cc1cc(Br)ccc1OCC(=O)N1CCN(Cc2ccccc2)CC1 | -8.75
O=C(COCc1cc(-c2cccs2)on1)Nc1cccnc1 | -0.234
OCC#CCSc1nc2ccccc2n1Cc1ccccc1 | 1.74

SMILES | % Inhibition @ 10 uM [%]
CCCOc1ccc(Cc2nn3c(=O)/c(=C\c4ccc(C(=O)OC)cc4)sc3nc2=O)cc1 | -2.29
Cc1ccc(S(=O)(=O)N2CCC(C)CC2)cc1[N+](=O)[O-] | 5.03
O=C(O)c1ccccc1C(=O)Nc1cccc(Br)c1 | 3.93
O=C1C(c2ccc(F)cc2)N(Cc2ccccc2)C(=O)CN1C1CCCCCC1 (centres unmarked) | 2.79
C=CCOc1ccc(Cl)cc1CNC(C)(C)CO | -3.23
O=C(CCCN1C(=O)CSc2ncccc21)NCCN1CCOCC1 | -4.15
CCN(CC)CC(O)c1ccc(C2CCCC2)cc1 (centres unmarked) | 3.05
Cc1sc2ncn(CC(=O)NCC(=O)N3CCC(Cc4ccccc4)CC3)c(=O)c2c1C | -3.93
Cc1cc(C)c(NC(=O)c2cc3c(C)nn(-c4ccccc4)c3s2)c(C)n1 | 3.72
COc1ccc(N2CC(C(=O)NC3=NCCS3)CC2=O)cc1 (centres unmarked) | 1.27
Oc1ccccc1-c1n[nH]c(/C=C/c2cccs2)n1 | -8.71
CC12CC(/C(=C(O)\C=C\c3ccccc3)C(=O)N1)c1ccccc1O2 (centres unmarked) | -1.29
COc1cc(/C=C(\C#N)c2nc3ccccc3[nH]2)cc(OC)c1OC | 2.24
C=CCNC(=O)c1ccccc1NC(=O)C(C)SCc1ccccc1 (centres unmarked) | 5.65
Fc1ccc(C2=CCN(C3CCN(CCc4ccccc4)CC3)CC2)cc1 | 1.9
CCOc1ccc(C(=O)C2=C(O)C(=O)N(CCCN(C)C)C2c2ccc(C(C)(C)C)cc2)cc1C (centres unmarked) | 1.52
CCc1nn(CC(=O)NCCC(C)C)c(=O)c2cc3ccccc3n12 | 3
CCOCCCNC(=O)c1[nH]c(C)c(C(C)=O)c1C | 1.23
CCOC(=O)C1=C(C(F)(F)F)Nc2ncnn2C1c1c(C)nn(-c2ccc(Cl)cc2)c1Cl (centres unmarked) | -7.32
Cn1c(=O)n(C)c2cc(/C=C3/SC(=O)N(CC(=O)Nc4ccccc4)C3=O)ccc21 | 11.8
C/C(=N\O)c1ccc(OCCOc2ccc([N+](=O)[O-])cc2)cc1 | -5.28
CCN(CC)CCNC(=O)CCc1nnc2ccc(N3CCC(C)CC3)nn12 | -2.26
CCOc1ccc(CCN2C(=O)CCC2(C)C(=O)NC2CCCC(C)C2C)cc1OCC (centres unmarked) | -4.97
COCCN1C(=O)c2c(C)nc3ccccc3c2C1=O | -8.18
CCC(C)(C)C1CCc2nc3sc(C(=O)Nc4ccc(S(N)(=O)=O)cc4)c(N)c3cc2C1 (centres unmarked) | -8.28

SMILES | % Inhibition @ 10 uM [%]
CC1=CC2=NC(=O)/C(=C\c3ccc(-c4cccc(C(=O)O)c4)o3)C(=N)N2O1 | 3.63
Fc1ccc(CN2CCN(Cc3ccccc3)CC2)cc1F | 3.1
CC1CCCC(N2CCN(C)CC2)C1 (centres unmarked) | -1.81
COCCNCc1c(C(=O)O)c(C)n(Cc2ccc(F)cc2)c1C | -11.3
O=C(c1cc(-c2ccccc2)[nH]n1)N1CCN(C2CCCCC2)CC1 | -1.3
NC(=O)C1(N2CCCCC2)CCN(c2nc3ccccc3c3nc(-c4cccnc4)nn23)CC1 | 0.981
CCOc1cc(CN2CCCN(C)CC2)ccc1OC | -1.86
CCC(CO)NS(=O)(=O)c1ccc(OC)c(-c2nnc3c4ccccc4c(C)nn23)c1 (centres unmarked) | 2.31
COc1ccc(C(=O)CC(=O)c2ccc(F)cc2)cc1 | -6.58
CC1C(=O)C(C)C(c2ccc(O)cc2)NC1c1ccc(O)cc1 (centres unmarked) | 2.65
Cc1ccc2oc(-c3ccccc3)cc2c1 | 2.45
N#Cc1ccccc1Cn1c(=O)n(Cc2ccccc2)c(=O)c2c3c(sc21)CCC3 | 3.5
O=C(Nc1sc2c(c1C(=O)O)CCC2)c1ccc(Cl)cc1 | 13
CCCCCc1ccc(-c2ccc(-c3noc(-c4cccc(C)c4)n3)cc2)cc1 | -4.08
COc1ccc(N2CCN(c3oc(COc4ccccc4OC)nc3C#N)CC2)cc1 | 2.38
COc1ccc(NS(=O)(=O)C[C@H](CCc2ccccc2)NC(=O)[C@H](CC(C)C)NC(=O)c2ccc3[nH]ccc3c2)cc1 | 5.05
CC(C)(C)OC(=O)NCc1cccc(C(=O)N[C@@H](CC2CCCCC2)C(=O)NCC#N)c1 | -0.214
CCOC(=O)c1c(-n2ncnc2-c2sccc2C)sc2c1CCCC2 | -3.6
CCc1ccc(N2CC(C(=O)Nc3c(C)cc(C)cc3C)CC2=O)cc1 (centres unmarked) | -0.28
O=C1CCCCC1NC(=O)[C@H](CS(=O)(=O)Cc1ccccc1OC(F)F)NC(=O)N1CCOCC1 (some centres unmarked) | 8.48
Cc1ccccc1Nc1nc(-c2cccs2)cs1 | -1.85
Cc1ccccc1OCC(=O)Nc1nnc(SCc2ccccc2F)s1 | 16.1
Cn1c(=O)c2sccc2n2c(CCCC(=O)NCc3ccc(F)cc3)nnc12 | 16

— article PMC6919601, “Identification of Plasmodium dipeptidyl aminopeptidase allosteric inhibitors by high throughput screening” (PLoS ONE, 2019)
